# Some of the results follow.
# Tested on: HSkMC (human skeletal muscle cells)
# Experiment: cytotoxicity call (relative viability < 0.9)
# Settings: 10 µM
row,Structure (SMILES),cytotoxicity call
1,C[C@H](CO)N1C[C@H](C)[C@@H](CN(C)Cc2ccc(-c3ccccc3)cc2)Oc2ccc(NC(=O)Nc3ccc4c(c3)OCO4)cc2C1=O,inactive
2,C[C@@H]1CCCCO[C@@H](CN(C)C(=O)CCC(F)(F)F)[C@@H](C)CN([C@@H](C)CO)C(=O)c2cc(NC(=O)CCC(F)(F)F)ccc2O1,inactive
3,O=C(C[C@@H]1CC=CCCC(=O)OCCNC1=O)NCCO,inactive
4,O=C(O)C(S)C(S)C(=O)O (stereo not given),inactive
5,C[C@@H]1CN([C@@H](C)CO)C(=O)Cc2cc(NC(=O)CCCN(C)C)ccc2O[C@@H]1CN(C)S(=O)(=O)c1ccc(F)cc1,inactive
6,C[C@@H]1CCCCO[C@H](CN(C)Cc2ccc(Cl)c(Cl)c2)[C@@H](C)CN([C@H](C)CO)C(=O)c2cc(NC(=O)c3ccncc3)ccc2O1,inactive
7,Cc1noc(C)c1S(=O)(=O)N(C)C[C@@H]1OCCCC[C@@H](C)Oc2ccc(NC(=O)Nc3ccc(C(F)(F)F)cc3)cc2C(=O)N([C@H](C)CO)C[C@@H]1C,inactive
8,N#Cc1ccc(-c2cccs2)nc1,inactive
9,CC(C)NC(=O)N(C)C[C@H]1OCCCC[C@@H](C)Oc2ccc(NC(=O)Nc3ccccc3)cc2C(=O)N([C@@H](C)CO)C[C@H]1C,inactive
10,C[C@@H]1CN([C@H](C)CO)C(=O)Cc2cc(NC(=O)Nc3ccc(F)cc3)ccc2O[C@@H]1CN(C)Cc1ccc(C(F)(F)F)cc1,active
11,COc1ccc(NC(=O)N(C)C[C@@H]2Oc3ncc(C#CCN(C)C)cc3C(=O)N([C@@H](C)CO)C[C@H]2C)cc1,inactive
12,CC(C)NC(=O)N(C)C[C@H]1OCCCC[C@@H](C)Oc2ccc(NS(C)(=O)=O)cc2C(=O)N([C@@H](C)CO)C[C@@H]1C,inactive
13,CC(=O)OC1(C(C)=O)CCC2C3C=C(Cl)C4=CC(=O)C5CC5C4(C)C3CCC21C (stereo not given),inactive
14,C[C@H]1CN([C@@H](C)CO)C(=O)c2cc(C#CCN(C)C)cnc2O[C@H]1CN(C)C(=O)Nc1cccc(F)c1,inactive
15,C[C@@H]1CN([C@H](C)CO)C(=O)c2cc(C#Cc3cccc(F)c3)cnc2O[C@H]1CN(C)Cc1ccccn1,inactive
16,C[C@H]1CN([C@@H](C)CO)S(=O)(=O)c2ccc(-c3cccc(F)c3)cc2O[C@@H]1CN(C)S(C)(=O)=O,inactive
17,C[C@@H]1CN([C@@H](C)CO)C(=O)Cc2cc(NC(=O)Nc3cccc4ccccc34)ccc2O[C@@H]1CN(C)C(=O)Nc1ccc(F)cc1,inactive
18,COc1ccc(S(=O)(=O)N(C)C[C@H]2OCCCC[C@H](C)Oc3ccc(NC(=O)NC4CCCCC4)cc3C(=O)N([C@H](C)CO)C[C@H]2C)cc1,inactive
19,CN(C)c1cnccn1.O=S(=O)(O)O,inactive
20,Cc1noc(C)c1S(=O)(=O)N(C)C[C@@H]1Oc2ccc(NC(=O)Cc3cn(C)c4ccccc34)cc2CC(=O)N([C@H](C)CO)C[C@@H]1C,inactive

row,Structure (SMILES),cytotoxicity call
1,COc1ccc(S(=O)(=O)Nc2cccc3c2O[C@@H](CN(C)Cc2ccncc2)[C@@H](C)CN([C@H](C)CO)C3=O)cc1,inactive
2,Fc1ccc(-n2cccc2)c(F)c1,inactive
3,CCS(=O)(=O)N1CCCn2c(nc(Cn3cncn3)cc2=O)C1,inactive
4,C[C@@H]1CN([C@@H](C)CO)C(=O)Cc2cc(NC(=O)Cn3cnnn3)ccc2O[C@H]1CN(C)Cc1ccncc1,inactive
5,C[C@@H]1CCCCO[C@@H](CN(C)C(=O)Nc2ccc(F)cc2)[C@H](C)CN([C@@H](C)CO)C(=O)c2cc(NC(=O)Nc3ccc(F)cc3)ccc2O1,inactive
6,Cc1cc(C)c2nc(-c3ccccn3)cc(C(=O)Nc3ccc(S(=O)(=O)Nc4onc(C)c4C)cc3)c2c1,inactive
7,C[C@@H]1CN([C@@H](C)CO)C(=O)c2cc(NC(=O)Nc3ccc(C(F)(F)F)cc3)ccc2O[C@@H](C)CCCCO[C@H]1CN(C)S(=O)(=O)c1cccs1,inactive
8,C[C@@H]1CCCCO[C@H](CN(C)Cc2ccncc2)[C@H](C)CN([C@H](C)CO)C(=O)c2cc(NC(=O)C3CCCCC3)ccc2O1,inactive
9,C[C@H]1CN([C@@H](C)CO)C(=O)c2cc(C#CC3(O)CCCC3)cnc2O[C@H]1CN(C)S(=O)(=O)c1cccc(F)c1,inactive
10,C[C@H](CO)N1C[C@H](C)[C@H](CN(C)C(=O)Nc2ccc(N3CCN(C)CC3)cc2)OCc2cnnn2CCCC1=O,inactive
11,O=C1c2ccccc2[C@@]2(Cc3ccccc3N(CC(F)(F)F)C2=O)[C@H](c2ccc(CO)cc2)N1C1CCCCC1,inactive
12,C[C@@H]1CN([C@H](C)CO)C(=O)c2cc(NC(=O)NC3CCCCC3)ccc2O[C@@H](C)CCCCO[C@H]1CN(C)C(=O)c1ccncc1,inactive
13,CCNC(=O)c1sc(C)nc1N,inactive
14,CC(C)(C)OC(=O)C[C@H]1CC=CC[C@H](CC(=O)NCCO)C(=O)N[C@H](Cc2ccccc2)COC1=O,inactive
15,O=C(O)CNC(=O)c1ccc(S(=O)(=O)N2CCOCC2)cc1,inactive
16,COC(=O)C1=CO[C@@H](O[C@@H]2O[C@H](CO)[C@@H](O)[C@H](O)[C@H]2O)[C@@H]2[C@@H](C)[C@@H](O)C[C@H]12,inactive
17,COc1ccc(S(=O)(=O)Nc2ccc3c(c2)C(=O)N([C@H](C)CO)C[C@H](C)[C@H](CN(C)C(=O)Nc2cccc4ccccc24)O3)cc1,inactive
18,COc1ccc(NC(=O)N(C)C[C@@H]2Oc3ncc(C#CCN(C)C)cc3C(=O)N([C@H](C)CO)C[C@H]2C)cc1,inactive
19,CC1(C)CC(=O)C=C(NCC(=O)O)C1,inactive
20,CN1CCC(=C2c3ccccc3Sc3ccccc32)CC1.O=C(O)C=CC(=O)O,inactive

# Reference: the antibiotic and cytotoxicity screens of Wong et al. (2023)
